Hit rate of the full screen: of about 270,000 compounds, about 620 (0.23%) were called active. Inconclusive means that the source gave no clear call. Such entries were picked first, then a sample of the others. Calls follow the shape of the dose curve; as a rule, active = well fitted inhibition curve with a large enough effect in the polarisation, with a control signal flat (not every such curve was filed as active); inconclusive = small, poorly fitted or top-dose-only effect, or effect the other way, or a change in a side signal; inactive = no such curve, though single readings can be large or run the other way; the % refers to the polarisation. Potencies of inconclusive entries are doubtful fits and often do not repeat. “Side channel” marks fits to a control or component signal instead of the main read-out.
biological target: Menin (Homo sapiens) (UniProt O00255); assay: qHTS Assay for Inhibitors Targeting the Menin-MLL Interaction in MLL Related Leukemias: Competition With Texas Red Labeled MLL-derived Mutant Peptide; conditions: fluorescence polarization; series mostly up to 61.6 µM
Potency is read from the fitted curve at half-maximal effect; tags tell the direction and shape of the fitted curve or compound fluorescence and quenching.

Sequence of UniProt O00255 (O00255 whole entry, looked up): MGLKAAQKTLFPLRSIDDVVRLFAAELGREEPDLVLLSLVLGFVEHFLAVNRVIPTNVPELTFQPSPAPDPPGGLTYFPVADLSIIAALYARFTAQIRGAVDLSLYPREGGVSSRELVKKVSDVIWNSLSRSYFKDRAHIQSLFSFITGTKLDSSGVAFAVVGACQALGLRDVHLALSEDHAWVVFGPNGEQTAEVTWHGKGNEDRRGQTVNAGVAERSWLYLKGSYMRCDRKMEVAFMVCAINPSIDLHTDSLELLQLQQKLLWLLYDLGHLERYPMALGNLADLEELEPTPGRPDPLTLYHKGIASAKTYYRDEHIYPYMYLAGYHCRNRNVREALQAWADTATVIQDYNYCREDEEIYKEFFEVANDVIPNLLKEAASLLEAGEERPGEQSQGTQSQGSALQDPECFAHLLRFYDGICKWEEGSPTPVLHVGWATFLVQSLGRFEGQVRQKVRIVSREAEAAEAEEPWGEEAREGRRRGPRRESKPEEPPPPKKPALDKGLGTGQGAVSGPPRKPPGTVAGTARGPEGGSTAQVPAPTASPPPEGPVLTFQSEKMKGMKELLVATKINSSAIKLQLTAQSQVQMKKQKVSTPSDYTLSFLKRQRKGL

Potency, inconclusive:
O=C(Nc1ccccc1)c1ccc2nc(-c3ccco3)c(-c3ccco3)nc2c1 11.2 µM [quencher, side channel, partial curve]
COc1cc(O)cc(O)c1C(=O)/C=C/c1ccccc1 25.1 µM [quencher, side channel, single point]
O=C(CCc1ccc(S(=O)(=O)NCc2ccccc2)cc1)N1CCN(Cc2ccc3c(c2)OCO3)CC1 28.2 µM [inhibitor, single point]
CCOC(=O)C1CCN(CC(C)(C)NS(=O)(=O)c2ccc(C)cc2)CC1 1.58 µM [inhibitor, partial curve]
CC1CCc2c(C(=O)NCCN3CCOCC3)csc2C1 (configuration not stated) 3.55 µM [inhibitor, single point]
COc1ccc(CNC(=O)CSCc2c(F)cccc2Cl)cc1 31.6 µM [fluorescent, side channel, single point]
C/C(=N\Nc1nncc2ccccc12)c1cccc(OC(F)F)c1 3.16 µM [quencher, side channel, full curve, poor fit]
O=C(c1cc2c(s1)CCCC2)N1CCN(c2ccccc2)CC1 3.55 µM [fluorescent, side channel, full curve, poor fit]
O=C(Nc1nc(-c2cc3ccccc3oc2=O)cs1)c1ccc(Br)o1 8.91 µM [quencher, side channel, full curve]
O=C(O)c1ccc(COc2ccc3ccccc3c2/C=C2/NC(=O)N(c3ccccc3)C2=O)cc1 6.31 µM [quencher, side channel, partial curve]
Cc1onc(-c2ccccc2Cl)c1C(=O)N1CCc2ccccc21 31.6 µM [inhibitor, partial curve]
CCOC(=O)c1cnc(-n2nc(C)cc2C)nc1NCc1ccccc1 7.94 µM [fluorescent, side channel, full curve, poor fit]
O=C(CSc1nnc(NC(=O)c2ccc(F)cc2)s1)NC1CCCC1 39.8 µM [fluorescent, side channel, single point]
COc1cccc(/C=C/C(=O)OCC(=O)Nc2cccc(S(=O)(=O)N(C)C)c2)c1 31.6 µM [quencher, side channel, single point]
O=c1/c(=C\c2cc([N+](=O)[O-])cc([N+](=O)[O-])c2O)sc2nc3ccccc3n12 8.91 µM [quencher, side channel, partial curve]
Cc1cc(/C=C2\SC(=O)N(C)C2=O)c(C)n1-c1ccc(O)cc1 25.1 µM [quencher, partial curve]
CCOCCCNC(=O)/C=C1\Sc2ccccc2N(Cc2ccccc2F)C1=O 2 µM [fluorescent, side channel, full curve]
O=C1C=C(Nc2ccc(Cl)cc2)C(=O)N1c1ccc(Cl)cc1 39.8 µM [quencher, side channel, single point]
CCC(C)c1ccc(NC(=O)Nc2cccnc2)cc1 (configuration not stated) 22.4 µM [quencher, side channel, partial curve]
CNc1c(NS(=O)(=O)c2ccc(C3CCCCC3)cc2)c(=O)oc2ccccc12 20 µM [fluorescent, side channel, partial curve]
O=C(NCC1CCN(Cc2ccccc2F)CC1)C1CCCN(c2ncnc3c2nc2n3CCCCC2)C1 (configuration not stated) 10 µM [inhibitor, partial curve]
O=C(N/N=C/c1ccc([N+](=O)[O-])o1)c1cc(-c2cccc(Br)c2)nc2ccccc12 11.2 µM [quencher, side channel, partial curve]
CCOC(=O)C1=C(c2ccccc2)N=c2s/c(=C\c3ccco3)c(=O)n2C1c1cccs1 (configuration not stated) 10 µM [quencher, side channel, partial curve]
Cc1noc(NS(=O)(=O)c2ccc(NC(=O)NC(C)(C(F)(F)F)C(F)(F)F)cc2)c1C 22.4 µM [quencher, side channel, partial curve]
O=c1c(C(c2ccc(O)cc2)c2c(O)nc3n(c2=O)CCCS3)c(O)nc2n1CCCS2 3.55 µM [fluorescent, side channel, single point]
COc1cc(NCCC(=O)c2cccs2)c(OC)cc1Cl 28.2 µM [quencher, side channel, single point]
O=C1Cc2ccccc2C(=O)N1OCc1ccc(Cl)cc1Cl 31.6 µM [quencher, side channel, single point]
O=C1CCCN1CCC12CC3CC(CC(C3)C1)C2 7.08 µM [fluorescent, side channel, partial curve]
O=C(c1ccccc1)c1cnc2ccc(Cl)cc2c1N1CCOCC1 39.8 µM [inhibitor, single point]
COc1ccc(Cn2c(=O)[nH]c3cc(C(=O)Nc4ccc(N5CCN(C)CC5)cc4)ccc32)cc1 39.8 µM [quencher, side channel, single point]
COc1ccc(OCC(=O)Nc2cccc(-c3nc4ccccc4[nH]3)c2)cc1 35.5 µM [quencher, side channel, single point]
COc1ccc2[nH]cc(/C=C(/C#N)S(=O)(=O)c3ccccc3)c2c1 15.8 µM [quencher, side channel, partial curve]
COc1cccc(CN(C)CC(=O)Nc2ccccc2C(C)C)c1 2.82 µM [fluorescent, side channel, full curve, poor fit]
CCCc1ccc(Oc2c(-c3ccc(O)c(C)c3O)n[nH]c2C)cc1 39.8 µM [quencher, side channel, single point]
O=c1c2cc(N3CCOCC3)ccc2[nH]c(=S)n1Cc1ccccc1Cl 5.62 µM [quencher, side channel, partial curve]
CC(=O)c1cc(C#N)c(SCC(=O)Nc2nccs2)nc1C 39.8 µM [inhibitor, single point]
O=C(Nc1cccc(O)c1)c1ccc2c(c1)C(=O)N(Cc1ccco1)C2=O 39.8 µM [quencher, side channel, partial curve]
Cc1cc(C)c(S(=O)(=O)Nc2ccc(Cl)cn2)c(C)c1 2.51 µM [inhibitor, partial curve]
Cc1oc2c(c1C(=O)c1ccc(Cl)cc1)C(=O)C(=O)c1ccccc1-2 31.6 µM [quencher, side channel, single point]
O=c1cc(-c2cccc(-c3ccc(C(F)(F)F)cc3)c2)c2cc3c(cc2o1)OCO3 4.47 µM [fluorescent, side channel, full curve]
COc1cc(OC)c(OC)cc1CN1CCN(Cc2ccc(SC)cc2)CC1 14.1 µM [inhibitor, partial curve]
Cc1cc(N2C(=O)C3CC=CC(C)C3C2=O)no1 (configuration not stated) 31.6 µM [quencher, side channel, single point]
COc1ccc(Nc2nc(-c3cc4cccc(OC)c4oc3=O)cs2)cc1 15.8 µM [quencher, side channel, partial curve]
Cc1ccc(/C=c2\sc3nc(-c4ccco4)nn3c2=O)o1 12.6 µM [quencher, side channel, partial curve]
O=C(/C=C\c1ccco1)Nc1nc(-c2ccccc2)cs1 14.1 µM [quencher, side channel, partial curve]
Cc1ccc2nc(/C(C#N)=C/c3ccc(-c4ccccc4C(=O)O)o3)[nH]c2c1 17.8 µM [quencher, side channel, single point]
CC1CCCC(NC(=O)c2cc(S(=O)(=O)N3CCOCC3)ccc2F)C1C (configuration not stated) 14.1 µM [inhibitor, partial curve]
Cc1ccc(-n2ccc(=O)c(C(=O)Nc3ccc(S(=O)(=O)Nc4onc(C)c4C)cc3)n2)cc1 17.8 µM [quencher, side channel, partial curve]
CC(=O)N[C@H]1[C@H](Oc2ccc3c(c2)CCC2C3CC[C@]3(C)C(=O)CCC23)O[C@H](CO)[C@@H](O)[C@@H]1O (some centres not stated) 7.08 µM [quencher, side channel, partial curve]
CC(C)(C)SCCNC(=O)c1ccc(CN2CCc3ccccc3C2)cc1 5.01 µM [inhibitor, full curve]

Potency, active:
O=C(NC1=NCCS1)c1cc(-c2ccc(-c3ccccc3)cc2)nc2ccccc12 11.2 µM

Potency, inactive:
Oc1ccccc1-c1csc(-c2ccccc2)n1
COc1ccc(C2=NOC(C(=O)NCc3ccc(F)cc3)C2)cc1OC (configuration not stated)
O=C(NNc1nc2ccccc2nc1C(F)(F)F)c1ccccc1
CCC(=O)Nc1ccc(C(=O)N/N=C/c2cccnc2)cc1
O=[N+]([O-])c1ccc(O)c2cccnc12
Cc1nc(C#N)c(N/N=C/c2cccc(Cl)c2)o1

Reference: PubChem BioAssay AID1768 (National Center for Advancing Translational Sciences (NCATS), 2009)
